About 64,000 (15%) of roughly 420,000 compounds were called active. The shares of active, inactive and inconclusive entries below differ from those in the screen. Calls follow the shape of the dose curve; as a rule, active = well fitted inhibition curve with a large enough effect; inconclusive = small, poorly fitted or top-dose-only effect; inactive = flat fitted curve, though single readings scatter. No potency is given beside an inconclusive call; the fits are too rough.
Assay: qHTS for Inhibitors of human tyrosyl-DNA phosphodiesterase 1 (TDP1): qHTS in cells in absence of CPT; also: nearly all actives have a fitted effect of over 55% in size
Conditions: DT40 Tdp1-/- hTDP1 cells, no CPT, ATP luminescence, 48 h; activity change, negative = growth inhibition: at 46.2 µM (top of the series) unless noted
Procedure, shortened: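 No-CPT arm: Tdp1-/-;hTDP1 DT40 cells (400/well) plus compounds, incubated ≥48 hr at 37 °C. Readout CellTiter-Glo luminescence.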
% is scaled to controls: 0 for no effect and ±100 for the full control effect; potency is read from the fitted curve at half-maximal effect; tags tell the direction and shape of the fitted curve.

| SMILES | activity change, negative = growth inhibition | Potency |
| --- | --- | --- |
| O=C(c1ccc2c(=O)n3c(nc2c1)CCCCC3)N1CCN(c2ccccc2F)CC1 | inconclusive: -30.9% [inhibitor] | – |
| CCOC(=O)c1cc(-c2ccc(OC)cc2)n[nH]1 | – | inactive |
| CCC(=O)NC(Nc1sc2c(c1C(=O)OC)CCC2)C(Cl)(Cl)Cl (stereo not given) | – | active: 14.6 µM |
| CN(CC(=O)NC(=O)NCc1ccccc1)Cc1ccc(Cl)cc1 | – | inactive |
| Cc1cc(OCCCn2ccnc2)ccc1[N+](=O)[O-] | – | inconclusive [inhibitor, single point] |
| COc1ccc2c(c1)c(C(C)=O)c(C)n2-c1ccc(C(C)=O)cc1 | – | inconclusive [inhibitor, partial curve] |
| CC1CCCCN1S(=O)(=O)c1ccc(C(=O)N2CCOCC2)cc1 (stereo not given) | – | inactive |
| COc1ccc(-c2cc(C(F)F)n3ncc(C(=O)NCCCN4CCCC4=O)c3n2)cc1 | – | active: 16.4 µM |
| CC(=O)N1CCSc2ccc(S(=O)(=O)N3CCC(C)CC3)cc21 | – | active: 14.6 µM |
| O=C(CN(C(=O)Cn1nnc(-c2ccccc2F)n1)c1cccc2c1CCCC2)NCc1ccccc1 | – | inconclusive [inhibitor, single point] |
| O=C(Cn1nc(-c2ccc(Cl)cc2)c2ccccc2c1=O)Nc1cccnc1 | – | inactive |
| CCN(CC)CCNC(=O)c1ccc(Cn2c(=O)c3cccn3c3cccnc32)cc1 | – | inactive |
| CS(=O)(=O)Nc1ccc(-c2cnc3cccnn23)cc1 | – | inconclusive [inhibitor, partial curve] |
| CCOC(=O)CC1(C)Oc2ccccc2N1S(=O)(=O)c1ccc(C)cc1 (stereo not given) | – | inconclusive [inhibitor, single point] |
| Cc1cc(NC(=O)CSc2ncc(C(=O)Nc3ccc(F)cc3)c(=O)n2C)no1 | – | inactive |
| NC(CSC1(c2cccc3ccccc23)c2ccccc2-c2ccccc21)C(=O)O (stereo not given) | – | inconclusive [inhibitor, single point] |
| Cc1ccc(NC(=O)c2cc3ccccc3oc2=N)cc1 | – | inconclusive [inhibitor, single point] |
| COc1cccc(-c2cc(C(=O)NCC3CCCO3)c3cc(Br)cc(C)c3n2)c1 (stereo not given) | – | inconclusive [inhibitor, single point] |
| Cc1nc2ccccc2c(=O)n1-c1ccc(NC(=O)C(F)(F)F)cc1 | – | inactive |
| Cc1ccc(SCC(=O)OCC(=O)NCCc2ccccc2)cc1 | – | inconclusive [inhibitor, single point] |
| COc1cc(-c2nc3c4ccccc4nc(=S)n3[nH]2)cc(OC)c1OC | – | inconclusive [inhibitor, single point] |
| COc1cc(-c2ccc(Cl)cn2)cc2c1OCCN(C(=O)c1ccccc1-n1cccn1)C2 | – | inconclusive [inhibitor, partial curve, poor fit] |
| Cc1ccc(-n2ncc(C(=O)NCCc3ccsc3)c2C2CCN(C(=O)OC(C)(C)C)CC2)cc1C | – | active: 16.4 µM |
| COc1ccc(S(=O)(=O)N2CCC(C(=O)Nc3cc(Cl)ccc3N3CCOCC3)CC2)cc1OC | – | inconclusive [inhibitor, single point] |

| SMILES | activity change, negative = growth inhibition | Potency |
| --- | --- | --- |
| O=C(Nc1cc(C(F)(F)F)ccc1N1CCCCC1)c1ccco1 | – | inconclusive [inhibitor, single point] |
| Cc1c(Cl)c([N+](=O)[O-])nn1CCCC(=O)Nc1cccc(Cl)c1Cl | – | inconclusive [inhibitor, partial curve, poor fit] |
| Cc1ccccc1CCNC(=O)C1CCC(=O)N(CCc2cccc(F)c2)C1 (stereo not given) | – | inconclusive [inhibitor, single point] |
| Cc1ccc2c(c1)C(C)CC(C)(C)N2C(=O)NC1CCCCC1 (stereo not given) | – | inconclusive [inhibitor, single point] |
| CCCCC[C@H]1CN(C2CCCCC2)C(=O)[C@@H]1CC(=O)NCc1ccc(OC)cc1 | – | active: 10 µM |
| CNc1nc(SCC(=O)Nc2ccccc2)nc(N2CCOCC2)n1 | – | inactive |
| O=C(NCC1CCCO1)C(=O)NCC(c1ccco1)N1CCN(c2ccccc2F)CC1 (stereo not given) | – | inconclusive [inhibitor, single point] |
| Cc1cc(C)c2c(=O)n3c(nc2c1)C(CC(C)C)NC(=O)c1cc2ccccc2cc1-3 (stereo not given) | – | active: 4.61 µM |
| Cc1cc(OCC(=O)C(C)(C)C)c2c(C)c(C)c(=O)oc2c1 | – | inconclusive [inhibitor, single point] |
| COC(=O)[C@@]1(Cc2ccc(OC)cc2)[C@H]2c3cc(C(=O)N(C)C)n(Cc4ccc(OC(F)(F)F)cc4)c3C[C@H]2CN1C(=O)c1ccccc1 | – | active: 20.6 µM |
| CCOc1ccc(CCNC(=O)COC(=O)c2ccc(Cl)nc2)cc1OCC | – | inconclusive [inhibitor, single point] |
| COc1cc2c(cc1NC(=O)/C=C/c1cc(OC)c(OC)c(OC)c1)oc1ccccc12 | – | active: 14.6 µM |
| COC1CC(=O)C2OC(c3ccccc3)OCC2O1 (stereo not given) | – | inactive |
| CC1CCCC(NC(=O)CN(C)CC(=O)Nc2ccc(F)cc2)C1C (stereo not given) | – | inactive |
| O=C(NCCCN1CCOCC1)c1ccccc1NS(=O)(=O)c1ccc(Br)cc1 | – | inactive |
| CCCNC(=O)c1cnc(-c2ccccc2)nc1-c1ccccc1 | – | inconclusive [inhibitor, partial curve] |
| CCCCn1nnnc1C(c1ccccc1)N1CCN(C(=O)c2ccco2)CC1 (stereo not given) | – | inactive |
| CCC(C)C(NC(=O)C(C)NC(=O)CNC(=O)CNC(=O)OCc1ccccc1)C(=O)OC (stereo not given) | – | inactive |
| CCOc1ccc(C2NC(=O)C(C#N)=C(S)N2c2ccc(C)cc2)cc1OC (stereo not given) | – | inconclusive [inhibitor, single point] |
| O=C(Nc1ccccc1)c1cc([N+](=O)[O-])ccc1NCc1cccnc1 | – | inconclusive [inhibitor, single point] |
| CCOc1ccccc1NC(=O)c1c(NCc2sccc2C)sc2c1CCCCC2 | – | active: 14.6 µM |
| Cc1ccc(C)c(S(=O)(=O)N2CCN(C(=O)CCNC(=O)c3ccc(Br)cc3)CC2)c1 | – | active: 20.6 µM |
| Cc1cc(C)n(Cc2ccc(Cl)cc2Cl)c(=O)c1S(=O)(=O)c1ccccc1 | – | active: 23.1 µM |
| CCCNC(=O)c1ccc(-n2c(-c3ccccc3)cc3c2CCC(C)C3)cc1 (stereo not given) | – | inconclusive [inhibitor, single point] |

| SMILES | activity change, negative = growth inhibition | Potency |
| --- | --- | --- |
| O=C(Nc1nc(C2C3CC4CC(C3)CC2C4)cs1)c1cc2cc([N+](=O)[O-])ccc2oc1=O (stereo not given) | – | active: 9.2 µM |
| CCC1CCCCN1C(=O)CSc1nnc(CNC(=O)c2c(F)cccc2Cl)o1 (stereo not given) | – | inactive |
| C/C(=N\NC1=NCCN1)c1ccc(N)c([N+](=O)[O-])c1 | – | inconclusive [inhibitor, partial curve] |
| CC(=O)OCC(=O)N1CCN(c2ccc([N+](=O)[O-])cc2)CC1 | inconclusive: -36.6% [inhibitor] | – |
| N#Cc1ccc2[nH]c(CO)c(-c3ccccc3)c2c1 | – | inconclusive [inhibitor, single point] |
| C=Cc1ccc(Cn2c(C(=O)O)c(CNCc3cc(Br)ccc3OC)c3ccc(C)cc32)cc1 | – | inconclusive [inhibitor, single point] |
| O=C(COC(=O)COc1ccccc1F)NCCc1ccc(F)cc1 | – | inactive |
| C=CCn1c(SCC(=O)NC2CCCc3ccccc32)nnc1-c1ccncc1 (stereo not given) | – | inconclusive [inhibitor, single point] |
| COc1ccc(CCNC(=O)CN(c2cc(OC)ccc2OC)S(=O)(=O)c2ccccc2)cc1 | – | inconclusive [inhibitor, single point] |
| CC1(C(=O)Nc2cnc3ccccc3c2)CCN1Cc1ccc2c(c1)OCCO2 (stereo not given) | – | inconclusive [inhibitor, single point] |
| COc1ccc(C(=O)Nc2ccc(NC(C)=O)cc2)cc1S(=O)(=O)N1CCCCC1C (stereo not given) | – | inconclusive [inhibitor, single point] |
| C/C(=N\Nc1ccccn1)c1ccc2c(c1)OCO2 | – | inconclusive [inhibitor, single point] |
| Cc1nc(-c2ccc(NC(=O)CC(C)C)cc2)cs1 | inconclusive: -30.1% [inhibitor] | – |
| Cn1c(N)c(C(=O)COC(=O)/C=C/c2ccc(S(=O)(=O)N3CCOCC3)cc2)c(=O)n(C)c1=O | – | inactive |
| CCC(C)N=C1CC(C)(C)CC(=O)/C1=C(/O)Cc1ccccc1 (stereo not given) | – | inconclusive [inhibitor, single point] |
| CN(C)S(=O)(=O)c1cccc(-c2nnc(SCc3ccc4c(c3)OCCO4)o2)c1 | – | inconclusive [inhibitor, full curve] |
| O=C(c1ccc(Cl)c(S(=O)(=O)NCc2ccco2)c1)N1CCN(c2ccc(F)cc2)CC1 | – | active: 23.1 µM |
| COc1ccc(C)cc1NC(=O)c1sc2nc(C)nc(N3CCOCC3)c2c1C | – | inconclusive [inhibitor, single point] |
| COc1ccc(-n2c(SCC(=O)NCc3cccs3)nc3[nH]ncc3c2=O)cc1 | – | inactive |
| Cc1cccc(N2CCN(C(=O)CS(=O)(=O)c3cccc4nsnc34)CC2C)c1 (stereo not given) | – | inconclusive [inhibitor, single point] |
| O=c1cc(C(O)C[N+](=O)[O-])occ1OCc1ccccc1 (stereo not given) | – | inconclusive [inhibitor, partial curve] |
| CCOC(=O)c1ccc(S(=O)(=O)N2CCN(C3CC(=O)N(c4ccc(OC)cc4)C3=O)CC2)cc1 (stereo not given) | – | inactive |

Reference: PubChem BioAssay AID686978 (National Center for Advancing Translational Sciences (NCATS), 2013)
